# Data taken from the supplement of paper PMC10037445.
# The full ranking holds about 2,900 compounds; the median of “IRF Lucia reporter activity, fold change vs agonist alone” is about 0.9, and the highest 2% start at about 2.8. Some of the results follow.
# Legend:
# RAW-Dual [1] = assay: IRF Lucia reporter activity, fold change vs agonist alone; cytotoxicity flag (confluency mask): not cytotoxic; higher = enhanced IRF activity
# Method in brief: (§1)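 RAW-Dual macrophages were seeded in DMEM at 50,000 cells/well in 384-well plates, given 50 nL of library stock by pin tool, and given a PRR agonist 1 h later. Plates were held at 37 °C, 5% CO2 for 20 hours, after which supernatant was read for IRF by QuantiLuc luminescence and for NF-κB by QuantiBlue absorbance at 620 nm. Reporter activity is expressed as fold change over wells that received agonist alone. A well was called cytotoxic when IncuCyte confluency fell below 70% of agonist controls in both mask sets.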
# RAW-Dual [2] = assay: IRF Lucia reporter activity, fold change vs agonist alone; higher = enhanced IRF activity; conditions: cytotoxicity flag (confluency mask): not cytotoxic, agonist: MPLA (TLR4) […]
# Method in brief: as §1
# RAW-Dual [3] = assay: IRF Lucia reporter activity, fold change vs agonist alone; cytotoxicity flag (confluency mask): cytotoxic (confluency <70% of control); higher = enhanced IRF activity
# Method in brief: as §1
# [4] = agonist: 3'3'-cGAMP (STING) 10 ug/mL
# [5] = library stock concentration (final ~1000-fold dilution): 10 mM
smiles,measurement,setting,value
CC1(c2cc(-c3cncnc3)c(F)cc2F)CCSC(N)=N1 (stereo not drawn) (library stock concentration (final ~1000-fold dilution): 10 mM),IRF Lucia reporter activity,RAW-Dual [1]; [4],0.823
same,IRF Lucia reporter activity,RAW-Dual [1]; agonist: LPS (TLR4) 0.1 ug/mL,0.805
Cc1cc(Cn2cnc3c2CC(C(=O)O)N(C(=O)C(c2ccccc2)c2ccccc2)C3)ccc1N(C)C (stereo not drawn),IRF Lucia reporter activity,RAW-Dual [2]; [5],1.03
Cc1cc(Cn2cnc3c2CC(C(=O)O)N(C(=O)C(c2ccccc2)c2ccccc2)C3)ccc1N(C)C (stereo not drawn) (library stock concentration (final ~1000-fold dilution): 10 mM),IRF Lucia reporter activity,RAW-Dual [1]; [4],1.03
same,IRF Lucia reporter activity,RAW-Dual [1]; agonist: LPS (TLR4) 0.1 ug/mL,1.02
Cc1ccc(S(=O)(=O)NC(=O)NN2CC3CCCC3C2)cc1 (stereo not drawn) (library stock concentration (final ~1000-fold dilution): 10 mM),IRF Lucia reporter activity,RAW-Dual [1]; [4],1.01
same,IRF Lucia reporter activity,RAW-Dual [1]; agonist: LPS (TLR4) 0.1 ug/mL,0.988
Cc1ccc(S(=O)(=O)NC(=O)NN2CC3CCCC3C2)cc1 (stereo not drawn),IRF Lucia reporter activity,RAW-Dual [2]; [5],1.04
CN1CCCC1CCOC(C)(c1ccccc1)c1ccc(Cl)cc1.O=C(O)/C=C/C(=O)O (stereo not drawn),IRF Lucia reporter activity,RAW-Dual [2]; [5],1.15
CN1CCCC1CCOC(C)(c1ccccc1)c1ccc(Cl)cc1.O=C(O)/C=C/C(=O)O (stereo not drawn) (library stock concentration (final ~1000-fold dilution): 10 mM),IRF Lucia reporter activity,RAW-Dual [1]; [4],0.641
same,IRF Lucia reporter activity,RAW-Dual [1]; agonist: LPS (TLR4) 0.1 ug/mL,1.33
Cc1noc(C)c1-c1ccc2[nH]c(=O)n3c2c1OCC3c1ccccn1 (stereo not drawn) (library stock concentration (final ~1000-fold dilution): 10 mM),IRF Lucia reporter activity,RAW-Dual [1]; [4],0.335
same,IRF Lucia reporter activity,RAW-Dual [1]; agonist: LPS (TLR4) 0.1 ug/mL,0.167
Cl.O=C1C2CCCCC2C(=O)N1CCCCN1CCN(c2nsc3ccccc23)CC1 (stereo not drawn) (library stock concentration (final ~1000-fold dilution): 10 mM),IRF Lucia reporter activity,RAW-Dual [1]; [4],0.434
same,IRF Lucia reporter activity,RAW-Dual [1]; agonist: LPS (TLR4) 0.1 ug/mL,0.881
Cl.O=C1C2CCCCC2C(=O)N1CCCCN1CCN(c2nsc3ccccc23)CC1 (stereo not drawn),IRF Lucia reporter activity,RAW-Dual [2]; [5],0.801
O=C(OC1CC2CC3CC(C1)N2CC3=O)c1c[nH]c2ccccc12 (stereo not drawn) (library stock concentration (final ~1000-fold dilution): 10 mM),IRF Lucia reporter activity,RAW-Dual [1]; [4],0.956
same,IRF Lucia reporter activity,RAW-Dual [1]; agonist: LPS (TLR4) 0.1 ug/mL,1.31
O=C(OC1CC2CC3CC(C1)N2CC3=O)c1c[nH]c2ccccc12 (stereo not drawn),IRF Lucia reporter activity,RAW-Dual [2]; [5],1.03
Cc1nnc(C(C)C)n1C1CC2CCC(C1)N2CCC(NC(=O)C1CCC(F)(F)CC1)c1ccccc1 (stereo not drawn),IRF Lucia reporter activity,RAW-Dual [2]; [5],0.942
Cc1nnc(C(C)C)n1C1CC2CCC(C1)N2CCC(NC(=O)C1CCC(F)(F)CC1)c1ccccc1 (stereo not drawn) (library stock concentration (final ~1000-fold dilution): 10 mM),IRF Lucia reporter activity,RAW-Dual [1]; [4],1.04
same,IRF Lucia reporter activity,RAW-Dual [1]; agonist: LPS (TLR4) 0.1 ug/mL,0.853
CC(C)C(NC(=O)c1ccc2ccccc2n1)C(=O)NC(CC(=O)O)C(=O)COc1c(F)cccc1F (stereo not drawn) (library stock concentration (final ~1000-fold dilution): 10 mM),IRF Lucia reporter activity,RAW-Dual [1]; [4],1.64
same,IRF Lucia reporter activity,RAW-Dual [1]; agonist: LPS (TLR4) 0.1 ug/mL,1.3
CC(C)C(NC(=O)c1ccc2ccccc2n1)C(=O)NC(CC(=O)O)C(=O)COc1c(F)cccc1F (stereo not drawn),IRF Lucia reporter activity,RAW-Dual [2]; [5],1.24
CC(C)CC(NC(=O)C1OC1C(=O)O)C(=O)NCCCCNC(=N)N (stereo not drawn) (library stock concentration (final ~1000-fold dilution): 10 mM),IRF Lucia reporter activity,RAW-Dual [1]; [4],1.16
same,IRF Lucia reporter activity,RAW-Dual [1]; agonist: LPS (TLR4) 0.1 ug/mL,0.804
CC(C)CC(NC(=O)C1OC1C(=O)O)C(=O)NCCCCNC(=N)N (stereo not drawn),IRF Lucia reporter activity,RAW-Dual [2]; [5],1.16
CC(=O)Oc1cccc2c1C(=O)c1c(OC(C)=O)cc(C(=O)O)cc1C2=O (library stock concentration (final ~1000-fold dilution): 10 mM),IRF Lucia reporter activity,RAW-Dual [1]; [4],1.03
same,IRF Lucia reporter activity,RAW-Dual [1]; agonist: LPS (TLR4) 0.1 ug/mL,1.36
CC(=O)Oc1cccc2c1C(=O)c1c(OC(C)=O)cc(C(=O)O)cc1C2=O,IRF Lucia reporter activity,RAW-Dual [2]; [5],1.08
O=c1c2ccccc2nc(/C=C/c2cccnc2)n1Cc1ccccc1 (library stock concentration (final ~1000-fold dilution): 10 mM),IRF Lucia reporter activity,RAW-Dual [1]; [4],0.381
same,IRF Lucia reporter activity,RAW-Dual [1]; agonist: LPS (TLR4) 0.1 ug/mL,0.422
CC(C)(C#N)c1ccc(N2C(=O)OCc3cnc4ccc(-c5cnc6ccccc6c5)cc4c32)cc1 (library stock concentration (final ~1000-fold dilution): 10 mM),IRF Lucia reporter activity,RAW-Dual [1]; [4],0.582
same,IRF Lucia reporter activity,RAW-Dual [1]; agonist: LPS (TLR4) 0.1 ug/mL,0.437
COc1ccc(N2C(=O)/C(=C/c3ccc([N+](=O)[O-])s3)SC2=S)cc1 (library stock concentration (final ~1000-fold dilution): 10 mM),IRF Lucia reporter activity,RAW-Dual [3]; [4],0.0625
same,IRF Lucia reporter activity,RAW-Dual [3]; agonist: LPS (TLR4) 0.1 ug/mL,0.0609
CN(C)c1ccc(-c2nc3c(N4CCN(CC(=O)Nc5nccs5)CC4)c(Cl)cnc3[nH]2)cc1,IRF Lucia reporter activity,RAW-Dual [2]; library stock concentration (final ~1000-fold dilution): 2 mM,0.949
CN(C)c1ccc(-c2nc3c(N4CCN(CC(=O)Nc5nccs5)CC4)c(Cl)cnc3[nH]2)cc1 (library stock concentration (final ~1000-fold dilution): 2 mM),IRF Lucia reporter activity,RAW-Dual [1]; [4],0.0544
same,IRF Lucia reporter activity,RAW-Dual [1]; agonist: LPS (TLR4) 0.1 ug/mL,0.209
O=C1c2ccc(Nc3ccc(F)cc3F)cc2CCc2ccc(OCC(O)CO)cc21 (stereo not drawn) (library stock concentration (final ~1000-fold dilution): 10 mM),IRF Lucia reporter activity,RAW-Dual [1]; [4],0.33
same,IRF Lucia reporter activity,RAW-Dual [1]; agonist: LPS (TLR4) 0.1 ug/mL,1.08
O=C1c2ccc(Nc3ccc(F)cc3F)cc2CCc2ccc(OCC(O)CO)cc21 (stereo not drawn),IRF Lucia reporter activity,RAW-Dual [2]; [5],1.7
